Residue numbers refer to the chain shown, from its start. Values belong to the binder of their own block, whether it stands above or below them.
Assays:
Settings in all cases: both partners purified
[1] = molecular target: T1, Numb-PTBi (Numb^20–175), purified (human, UniProt P49757 20-175); test: SEC; Superdex-200; species injected at 300 µM, equimolar amounts
T1 construct: For NMR the protein was isotope-labelled; source: E. coli BL21 Rosetta pLysS, purified (NTA beads, Superdex-200)
T1 sequence (looked up): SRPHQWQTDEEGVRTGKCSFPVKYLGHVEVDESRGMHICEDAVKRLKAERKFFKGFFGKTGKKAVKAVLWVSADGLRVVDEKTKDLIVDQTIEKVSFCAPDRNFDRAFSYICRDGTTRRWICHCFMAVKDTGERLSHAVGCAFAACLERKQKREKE

[2] = molecular target: T2, Numb isoform-1 full-length, purified (human, UniProt P49757-1 1-651); test: fluorescence polarisation; 50 nM rhodaminated Mdm2 216–302 with increasing concentrations of the ligand; 10 mM Tris-HCl pH 7.5, 0.15 M NaCl, 0.5 mM EDTA, 1 mM DTT
T2 construct: Numb isoform-1, human; also called Numb-1; FL; source: purified
T2 sequence (looked up): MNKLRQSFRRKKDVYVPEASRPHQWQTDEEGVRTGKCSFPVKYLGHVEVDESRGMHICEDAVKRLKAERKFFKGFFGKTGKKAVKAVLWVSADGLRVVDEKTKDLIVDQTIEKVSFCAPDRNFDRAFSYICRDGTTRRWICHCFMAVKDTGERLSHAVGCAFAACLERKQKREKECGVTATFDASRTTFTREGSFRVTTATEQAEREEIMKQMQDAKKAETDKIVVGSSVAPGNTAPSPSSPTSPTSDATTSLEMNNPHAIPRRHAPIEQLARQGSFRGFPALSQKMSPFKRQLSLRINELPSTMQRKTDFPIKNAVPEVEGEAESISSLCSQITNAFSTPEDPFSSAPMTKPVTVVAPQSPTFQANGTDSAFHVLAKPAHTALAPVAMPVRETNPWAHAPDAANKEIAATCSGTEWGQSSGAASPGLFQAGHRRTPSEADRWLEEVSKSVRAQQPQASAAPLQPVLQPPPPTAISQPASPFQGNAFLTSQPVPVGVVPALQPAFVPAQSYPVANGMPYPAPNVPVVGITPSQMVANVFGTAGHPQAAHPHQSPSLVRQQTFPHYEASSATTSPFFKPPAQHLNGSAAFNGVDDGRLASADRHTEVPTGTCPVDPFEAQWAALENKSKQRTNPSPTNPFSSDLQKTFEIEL

[3] = molecular target: T3, PTBi harboring the F162V mutation (human, UniProt P49757 20-175, F162V); test: as above
T3 construct: also called PTBi F162V; source: purified
T3 sequence (looked up): T1 sequence (looked up) with F143V

[4] = molecular target: T4, PTBi in complex with GPpY (human | , UniProt P49757 20-175, phosphotyrosine at position 6 (AYIGPpYL)); test: as above
T4 construct: GPpY phosphopeptide, as m14; also called Numb-PTBi–GPpY complex

[5] = molecular target: T1, Numb-PTBi (Numb^20–175), purified; test: as above

binding result [1]: binds
B1: Mdm2^[…], purified (domain or fragment)
chain: not shown
notes: The GST tag was removed with PreScission protease 'when required'; 15N-labelled in part of the NMR work; source: E. coli BL21 Rosetta, purified

binding result [2]: binds | binding result [3]: binds | binding result [4]: binds | binding result [5]: binds
B2: rhodamine-labeled Mdm2^[…] (domain or fragment)
chain: not shown
modifications: rhodamine label (site not stated)
notes: as m32 with the label; source: purified, rhodaminated in vitro

— PMC5800818, “A Numb–Mdm2 fuzzy complex reveals an isoform-specific involvement of Numb in breast cancer” (The Journal of Cell Biology, 2018)
